# Assay results taken from PubChem BioAssay AID2451 (National Center for Advancing Translational Sciences (NCATS), 2010).
# The whole screen tested about 290,000 compounds, of which about 2,100 (0.72%) were called active. Inconclusive means that the source gave no clear call. Such entries were picked first, then a sample of the others. The call rests on the fitted dose curve; in most records, active means well fitted inhibition curve with a large enough effect; inconclusive means small, poorly fitted or top-dose-only effect, or effect the other way; inactive means flat fitted curve, though single readings scatter. Potencies of inconclusive entries are doubtful fits and often do not repeat.
# Target: Fructose-bisphosphate aldolase (Giardia intestinalis (strain ATCC 50803 / WB clone C6)) (UniProt A8B2U2)
# Experiment: qHTS Assay for Inhibitors of Fructose-1,6-bisphosphate Aldolase from Giardia Lamblia; further: nearly all actives have a fitted effect of over 55% in size
# Settings: purified Giardia FBPA; activity, negative = inhibition: at 59.6 µM (top of the series) unless noted
# Method in brief: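 40 nM FBPA preincubated 10 min at RT with compound (up to 57.5 uM final), then substrate plus GAPDH/TPI/NAD/arsenate coupling and diaphorase/resazurin added. Fluorescence read after 20 min at RT, 525/598 nm.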
# On the % scale 0 is the no-effect control and ±100 the full control effect; potency means the concentration at half of the fitted maximal effect; tags describe the fitted curve by direction and shape.
# Chain of UniProt A8B2U2 (A8B2U2 whole entry, looked up): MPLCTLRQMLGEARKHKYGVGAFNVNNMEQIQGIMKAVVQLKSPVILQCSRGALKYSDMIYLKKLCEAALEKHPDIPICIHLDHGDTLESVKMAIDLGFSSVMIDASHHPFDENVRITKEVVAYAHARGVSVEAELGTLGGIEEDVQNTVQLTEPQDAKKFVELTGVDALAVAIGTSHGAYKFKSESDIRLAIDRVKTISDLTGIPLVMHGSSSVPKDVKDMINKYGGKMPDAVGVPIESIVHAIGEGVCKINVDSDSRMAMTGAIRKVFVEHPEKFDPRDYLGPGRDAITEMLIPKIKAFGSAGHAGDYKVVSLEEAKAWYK
Compound,"activity, negative = inhibition",Potency
C=CCn1c(N)c(C(=O)Nc2ccccc2OC)sc1=S,inactive: -4.5%,
O=C(Nc1nccs1)c1cccc(N2C(=O)C3C4C=CC(C4)C3C2=O)c1 (stereo not drawn),inactive: -0.672%,
COC(=O)C1CCC(=S)N1C(=O)c1ccccc1 (stereo not drawn),,"inconclusive: 39.8 µM [inhibitor, single point]"
Cc1ccc(-n2sc3ccccc3c2=O)cc1S(=O)(=O)N1CCCCC1,,"inconclusive: 9.98 µM [inhibitor, partial curve]"
COc1cccc(-c2nnc(NC(=O)c3ccc(S(=O)(=O)N4CCOCC4)cc3)o2)c1,,"inconclusive: 15.8 µM [inhibitor, single point]"
Cc1ccc(C(=O)Nc2ccc(N3CCCC3)cc2)c(C)c1,,"inconclusive: 35.4 µM [inhibitor, single point]"
O=C(Nc1nnc(-c2ccco2)o1)c1ccc(S(=O)(=O)N2CCCC2)cc1,,active: 5 µM
Clc1ccccc1CN1CCN(c2ccccc2)CC1,,"inconclusive: 19.9 µM [inhibitor, partial curve]"
COC(=O)C(C)N1C(=O)S/C(=C/c2cc(C)n(-c3ccccn3)c2C)C1=O (stereo not drawn),,"inconclusive: 17.7 µM [inhibitor, single point]"
C/C(=N/NC(=O)COc1cc(C)ccc1C(C)C)C(=O)O,,"inconclusive: 17.7 µM [inhibitor, partial curve]"
O=C1c2ccccc2-c2onc3ccc(N4CCCC4)c1c23,,"inconclusive: 2.51 µM [inhibitor, full curve]"
Brc1ccccc1CN1CCC(Cc2ccccc2)CC1,,"inconclusive: 25.1 µM [inhibitor, single point]"
CC(CCN1CCOCC1)c1ccccc1 (stereo not drawn),,"inconclusive: 14.1 µM [inhibitor, partial curve]"
Cc1cccc(CSc2nnc(NC(=O)c3ccco3)s2)c1,,"inconclusive: 17.7 µM [activator, partial curve]"
O=C(C1CCCN(Cc2ccc(Br)cc2)C1)N1CCCCC1 (stereo not drawn),,"inconclusive: 10 µM [inhibitor, partial curve]"
CC(=O)c1csc(COc2ccccc2)n1,inactive: 3.37%,
C=CCSc1nsc(NC(=O)Nc2ccc(F)cc2)n1,,"inconclusive: 25.1 µM [inhibitor, partial curve]"
COc1ccc(OC)c(Nc2nc(-c3ccc(O)c(O)c3)cs2)c1,,active: 8.89 µM
CC(C)C[C@H](NC(=O)c1nc[nH]c1C(=O)NC1CCN(C(=O)OC(C)(C)C)CC1)C(=O)OCc1ccccc1,,"inconclusive: 15.8 µM [inhibitor, partial curve]"
O=C(O)c1ccc(COc2ccc3ccccc3c2/C=C2/NC(=O)N(Cc3ccc(F)cc3)C2=O)cc1,,"inconclusive: 17.7 µM [inhibitor, single point]"
COc1ccc(CCNC(=O)c2ccc3nc(-c4ccco4)c(-c4ccco4)nc3c2)cc1OC,,"inconclusive: 4.46 µM [inhibitor, partial curve]"
Cc1ccccc1CN1CCCC(C(=O)N2CCCCC2)C1 (stereo not drawn),,"inconclusive: 20 µM [inhibitor, partial curve]"
COc1cc(CNn2c(C)n[nH]c2=S)cc(Cl)c1OCc1ccc(F)cc1,,"inconclusive: 19.9 µM [inhibitor, single point]"
O=C(CNC(=O)c1cccnc1)N=Nc1c(O)[nH]c2c(Br)cc(Br)cc12,,active: 28.2 µM
COc1ccc(CN2CCc3c([nH]c4ccccc34)C2)c(OC)c1C,,"inconclusive: 22.4 µM [inhibitor, partial curve]"

Compound,"activity, negative = inhibition",Potency
O=C(CCn1cccc1)NC1CCCc2ccccc21 (stereo not drawn),inactive: -1.1%,
O=C(CN1CCN(C2CCCCC2)CC1)Nc1ccccc1-c1ccccc1,,"inconclusive: 3.16 µM [inhibitor, full curve]"
CN(CC(=O)O/N=C(\N)c1ccccn1)S(=O)(=O)c1ccccc1,inactive: 5.27%,
COc1ccccc1N1C(=O)c2cccc3c(Cl)ccc(c23)C1=O,inactive: -0.735%,
O=C(c1cnccn1)N1CCC2(CC1)CN(c1ncccn1)C2,inactive: 0.44%,
CS(=O)(=O)N1CCC(C(=O)NCc2ccc(F)cc2)CC1,inactive: 4.63%,
Cc1nc(NC(=S)NC(=O)c2ccccc2)sc1C,,active: 11.2 µM
C#CCONC(=O)c1cc(OCC(F)(F)F)ccc1OCC(F)(F)F,,"inconclusive: 7.06 µM [inhibitor, single point]"
O=C(COc1cccnc1[N+](=O)[O-])c1ccc(Cl)s1,,"inconclusive: 17.7 µM [inhibitor, partial curve]"
CC(C)OC(=O)c1c2c(n3ccccc13)C(=O)c1ccccc1C2=O,,"inconclusive: 15.8 µM [inhibitor, partial curve]"
COc1cc(OC)cc(C(=O)Nc2cc(NC(=O)c3ccco3)ccc2OC)c1,inactive: -2.88%,
CC(C)Oc1ccc(CSc2ncn[nH]2)cc1,inactive: -3.64%,
N[C@@H](Cc1cc(Br)c(O)c(Br)c1)C(=O)O,,"inconclusive: 19.9 µM [inhibitor, partial curve]"
O=S(=O)(Nc1ccc2c(c1)nc1n2CCN(Cc2ccccc2)C1)c1ccc(Cl)cc1,inactive: -0.584%,
COc1ccc2c(c1)CC1(CN2C)C(=O)NC(=O)N(c2ccc(F)cc2)C1=O (stereo not drawn),,"inconclusive: 31.6 µM [inhibitor, single point]"
CCN(CC)CCCN(C(=O)c1ccc(F)cc1)c1nc(-c2ccc(OC)cc2)cs1,,"inconclusive: 22.4 µM [inhibitor, partial curve]"
CCOC(=O)c1c(/N=C/c2cccc([N+](=O)[O-])c2O)sc(C)c1C,,"inconclusive: 15.8 µM [inhibitor, single point]"
CC1=CC2=NC(=O)/C(=C\c3ccc(-c4ccc(Cl)cc4)o3)C(=N)N2O1,inactive: 2.79%,
O=C(Oc1ccc(Cl)c2cccnc12)c1cccnc1,inactive: 8.97%,
CCCCNC(=O)CSc1nc2ccc(N3CCOCC3)cc2c(=O)n1CCc1ccccc1,,"inconclusive: 1.77 µM [inhibitor, full curve]"
Cc1cc(C(=O)CSc2nnnn2C)c(C)n1-c1ccc2c(c1)OCCO2,,"inconclusive: 17.7 µM [inhibitor, single point]"
Cc1ccc(NC(=O)c2cc(=O)[nH]c3ccccc23)cc1,inactive: 1.49%,
CCOC(=O)N1CCN(C(=O)CCNS(=O)(=O)c2ccc3c(c2)c(=O)n(C)c(=O)n3C)CC1,inactive: 0.427%,
COc1ccc(NCc2nnc(SCC(=O)Nc3cc(C(F)(F)F)ccc3Cl)o2)cc1,,"inconclusive: 15.8 µM [inhibitor, single point]"
COc1cc(N=c2ssnc2Cl)c(OC)cc1Cl,,"inconclusive: 22.3 µM [inhibitor, single point]"

Compound,"activity, negative = inhibition",Potency
C=CCc1cc(Cl)ccc1OCCN1CC(C)OC(C)C1 (stereo not drawn),,active: 17.7 µM
Fc1cccc(F)c1/C=N/NC(=S)Nc1cccnc1,,"inconclusive: 17.7 µM [inhibitor, partial curve]"
O=C(O)/C=C/C(=O)NNC(=O)c1ccccc1Br,inactive: -3.03%,
O=C(c1ccco1)N1CCN(Cc2cccc([N+](=O)[O-])c2)CC1,,"inconclusive: 14.1 µM [inhibitor, partial curve]"
COC(=O)c1sc(NC(=S)NC(=O)c2cccc(C)c2)nc1C,inactive: -17.8%,
Cn1nnc2c[n+](CC(=O)c3ccc(Cl)cc3)cc(Br)c21,,"inconclusive: 19.9 µM [inhibitor, partial curve]"
CCc1nnc(N/N=C/c2c(Cl)cccc2Cl)n1N,,"inconclusive: 15.8 µM [inhibitor, single point]"
COc1ccc(Br)cc1C1C2C=CCCC2(C)C(=O)N1Cc1ccccc1 (stereo not drawn),inactive: 0.299%,
COc1ccc2c(c1)c(C(=O)N/N=C/c1ccc(O)c(O)c1)c(C)n2C,,"inconclusive: 14.1 µM [inhibitor, partial curve]"
COCCN(CCOC)Cc1c(O)ccc2c1O/C(=C\c1ccc(C)o1)C2=O,,"inconclusive: 14.1 µM [inhibitor, partial curve]"
C/C(=N\NC(=O)C(N)=O)c1cccc([N+](=O)[O-])c1,,"inconclusive: 17.7 µM [inhibitor, single point]"
C=CCn1c(Sc2ncc([N+](=O)[O-])s2)n[nH]c1=O,,"inconclusive: 17.7 µM [inhibitor, partial curve]"
C=CCn1c(N)c(C(=O)Nc2cccc(C)c2)c2nc3ccccc3nc21,,"inconclusive: 3.97 µM [inhibitor, full curve]"
Cc1cc(NS(=O)(=O)c2ccc(Nc3nc(-c4ccc(O)cc4)cs3)cc2)no1,inactive: 13.1%,
Nc1nonc1C(=O)N/N=C/c1ccc(-c2ccc(Cl)c(C(=O)O)c2)o1,,"inconclusive: 15.8 µM [inhibitor, partial curve]"
c1ccc(-c2ccccc2OCCOCCN2CCOCC2)cc1,,active: 14.1 µM
Cc1nn(-c2nnc(NCc3ccccc3)nn2)c(C)c1Br,,"inconclusive: 12.6 µM [inhibitor, partial curve]"
COc1ccc(NC2CC(=O)N(c3ccccc3)C2=O)cc1 (stereo not drawn),,"inconclusive: 15.8 µM [inhibitor, single point]"
CCNC(=O)NC(=O)C(C)Sc1nc2ccccc2c(=O)n1-c1cccnc1 (stereo not drawn),,"inconclusive: 31.6 µM [inhibitor, single point]"
O=C(O)CCc1nnc(SCC(=O)Nc2ccc(Cl)c(C(F)(F)F)c2)[nH]c1=O,,"inconclusive: 17.7 µM [activator, single point]"
CCN1CCCC1CNCC(O)COc1ccc(C(C)(C)C)cc1C (stereo not drawn),,"inconclusive: 19.9 µM [inhibitor, partial curve]"
Cc1cc(C)nc(NC(=O)c2ccc([N+](=O)[O-])o2)n1,inactive: -14.1%,
CCCN1CCN(CC(=O)Nc2cc(OCC)ccc2OCC)CC1,,"inconclusive: 17.8 µM [inhibitor, partial curve]"
